# Some of the results follow. Sequences were assembled here from the parent chain. Inactive controls read about 0.05.
# B1: TEV protease; numbered along this chain (parent)
# chain: MGESLFKGPRDYNPISSSICHLTNESDGHTTSLYGIGFGPFIITNKHLFRRNNGTLVVQSLHGVFKVKDTTTLQQHLVDGRDMIIIRMPKDFPPFPQKLKFREPQREERICLVTTNFQTKSMSSMVSDTSCTFPSGDGIFWKHWIQTKDGQCGSPLVSTRDGFIVGIHSASNFTNTNNYFTSVPKNFMELLTNQEAQQWVSGWRLNADSVLWGGHKVFMVKPEEPFQPVKEATQL
# Variants of: B1
# Test: raw area under fraction-flipped curve 0-4 h after induction (AUC4h, not background-subtracted), DNA-recorder readout of cleavage of the substrate (dimensionless); higher = more cleavage of the substrate by the protease variant
# Conditions: temperature: 34 °C; time window: 0-4 h after rhamnose induction
# Experimental: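 In vivo DNA recorder in E. coli TOP10(DE3) ΔrhaA at 34 °C. Each TEVp single-site mutant (parent TEVp 0) is paired with a single-site variant of the 7-mer TEVs (canonical ENLYFQ|S). The substrate sits between flexible linkers in a Bxb1-sfGFP-TEVs-SsrA fusion, so cleavage stabilises Bxb1 and speeds flipping of a recombination array, read by NGS. The value is the raw area under the fraction-flipped curve over 0-4 h after rhamnose induction (AUC4h), with ≥20 reads per time point. It is not background-subtracted; inactive controls average about 0.047.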
# 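Note: Bxb1 expression induced with 0.2% (w/v) L-rhamnose at OD600 near 0.5, cultures sampled hourly, flipped fraction per protease–substrate barcode pair counted by paired-end Illumina sequencing.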
Variant,area with substrate EALYFQS,area with substrate ECLYFQS,area with substrate EELYFQS,area with substrate EILYFQS,area with substrate EPLYFQS,area with substrate EQLYFQS,area with substrate ERLYFQS,area with substrate ESLYFQS,area with substrate EGLYFQS,area with substrate EKLYFQS,area with substrate EWLYFQS,area with substrate EFLYFQS,area with substrate EHLYFQS,area with substrate EVLYFQS,area with substrate EYLYFQS,area with substrate EDLYFQS,area with substrate ELLYFQS,area with substrate EMLYFQS,area with substrate ETLYFQS
Q118I,0.138,0.0914,0.125,0.102,0.135,0.108,0.121,0.064,,,,,,,,,,,
Q118K,0.0614,0.0997,,,0.0605,0.0841,0.049,0.0704,0.049,0.138,0.0641,,,,,,,,
Q118P,0.0865,0.111,,0.0932,,,,0.107,0.0864,,0.101,0.0899,0.115,0.0954,0.0813,,,,
P134N,0.0907,,,0.0747,0.102,0.0914,0.0849,,,0.0854,0.08,,0.0991,,,0.125,0.0739,0.0805,
R81S,0.0314,,,0.0658,0.0872,0.0784,0.0791,0.0735,0.0424,0.0734,,,0.0884,,,,,,0.0648
S123Y,0.0852,,,0.107,,0.114,,0.114,,0.0935,0.108,,,0.0854,,,,0.101,0.114
S123C,0.163,0.0738,,0.0944,0.0955,,0.0911,0.0802,0.116,0.0636,0.0878,,0.0653,,,,,0.119,0.0941
Q146F,0.131,,,0.109,,,,,0.103,,,,0.115,0.0925,,,0.0912,0.141,
R87I,0.0995,0.0859,,0.0756,,0.0944,0.0898,0.0842,0.0775,0.0847,0.0754,0.0823,,0.0766,0.0741,,,,0.0763
R87A,0.105,0.0836,,0.1,0.143,0.105,0.122,0.109,,0.117,0.0606,,,0.0858,0.137,,0.118,0.109,
R87F,0.109,0.0936,,0.0875,0.113,0.115,0.0886,0.0886,0.0803,0.105,,0.0445,0.0968,,,,,0.0834,0.099
R87Y,0.113,,0.0883,,0.0805,,0.0688,0.074,,0.0942,0.0882,,,0.102,,,,,
N116H,0.0821,0.0836,,,0.111,,0.104,0.122,,,,,,,,,,0.105,
F92I,0.108,0.0699,0.116,,,0.101,0.0819,0.105,,,0.0906,,,0.0946,,,0.0957,,
F92D,0.0624,0.0504,,0.0613,0.0876,,0.052,0.0524,,0.0601,,,,0.0516,,,0.0677,,
P94R,0.105,,0.121,0.102,0.151,0.109,0.134,0.0841,0.103,0.145,,,,0.0961,0.122,0.148,,0.123,
Q105P,0.0691,0.0546,,0.0335,,0.0554,0.06,0.0536,0.0597,0.0493,,0.0543,,0.0426,,,,0.0508,

# From the supplement of paper PMC12217912
